# Measured values reported in the supplement of paper PMC10681739.
# Whole data set: some 4,000 sequences, median “arbitrary fluorescence units” near 830, cut for the highest 2% near 6,500. Most of the strongest results are missing from this list.
# Biological target: RUNX1 (UniProt Q01196)
# Assay: RUNX1 binding intensity (PBM fluorescence), RUNX1 alone (arbitrary fluorescence units); higher = stronger binding
# Settings: RUNX1 concentration 2 nM; ETS1 concentration 0 nM
# Method: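 gcPBM on 36-bp genomic-derived probes (partner site mutated) containing one RUNX1 site and no ETS1 site. Recombinant human RUNX1 (2 nM) was incubated alone or with ETS1 (25 nM) and detected by anti-RUNX1 antibody fluorescence. Values are medians over 4 replicate spots (not normalised). The probes sit in constant array flanks that are not printed.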
# 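Also: Full-length recombinant human RUNX1 bound to double-stranded DNA microarray spots, detected with an Alexa488-labelled secondary antibody after the anti-RUNX1 primary, read as scanned spot fluorescence.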
# UniProt Q01196, sequence (Q01196 whole entry): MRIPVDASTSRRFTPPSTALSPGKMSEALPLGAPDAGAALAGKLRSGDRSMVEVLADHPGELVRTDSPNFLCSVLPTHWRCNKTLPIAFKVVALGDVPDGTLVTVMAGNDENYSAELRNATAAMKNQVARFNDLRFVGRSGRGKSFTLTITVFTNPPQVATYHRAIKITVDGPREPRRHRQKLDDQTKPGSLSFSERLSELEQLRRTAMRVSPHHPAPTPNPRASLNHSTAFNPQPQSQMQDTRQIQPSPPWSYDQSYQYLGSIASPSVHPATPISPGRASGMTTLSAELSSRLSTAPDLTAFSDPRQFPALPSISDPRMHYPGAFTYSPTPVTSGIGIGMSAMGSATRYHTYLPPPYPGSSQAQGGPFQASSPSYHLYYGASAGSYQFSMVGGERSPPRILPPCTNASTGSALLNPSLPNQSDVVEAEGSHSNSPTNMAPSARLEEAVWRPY
row,Sequence,RUNX1 binding intensity
1,ATCCAGGACGGTGCACCGACCCGAGGCACACCGCAC,773
2,CAGTGACAGCAAGTGGTTCAGCGGTTGTTTAGGGCT,742
3,AGCAACCCACTACCCGGCGCCTGATTCACCTCCCTC,1090
4,CCCACCCTCGCCTGAAGCCGAGCGGTTTCTACATCA,1010
5,GGCAAAACCAATCGGCGGCCACACGGCAGTGGGCGG,1420
6,GCCCAGGCAGCAAGCCAGGCGCCCACAGGTTGGCAG,671
7,CCCCATCCTTGACCACAGGACCAGGCAGTCAGGGCA,1610
8,CGGGTCCTCGCGGACCGCACGGATCCAGCTGACGGC,705
9,CCAACCACAGCTCGGCAGGCGCCACATGAAGGGCCC,909
10,GGTCCGGGTGTATAAAGCGCGGCCCCCTGCGGGGAG,698
11,GGAAAAAAACCACCCATGCTCCTGGACCTCCCCTTC,945
12,ATGAAAGGACCACAAAGCCTCAGACAGAAAGCTGCA,869
13,ATGCTGTGGGTCCACTCCCTGCCACCTGCTTGCTGC,740
14,TTGCCATTCCAGGCAATGAGCTTACCACATTGACTG,855
15,CCCCCTGCGGTACAAATGTCCCGTAAGCCGCGAACC,1390
16,CTCACCGCGGGCTAGGGAGCGTGGGATTCTGGACTG,752
17,CACTGCATTGTGGGAACGCGGAGCGCAAGCGAAGGG,768
18,GGTTACTAGACCACAGCTTTTGTCCAGGGTGTGGCT,1120
19,ACTTCCACCGCTTTCGGTGCCTGTTGCCGCCTCCAA,980
20,GTCACTGTGGTATTTACTTTAGCTTTCTGTTCATCC,1460
21,GGAGGGGCTGGCTGGAAGTGAACCGCAGAGCACGCT,1090
22,ACCTGGTCTTGTGGCCCCCACCCAGGCAATGACTCA,807
23,CCGATTTCCCCGGGCGTGGTGAGACCGCGCTTCGTC,785
24,TCCCCACACTCCCGGCCCCGCCCGCACAGCCGCACC,1200
25,AAATGTGTGTGGTTTCAGAACGTCCTCCCCACCTCC,1300
26,TCTAAATCACTTGCTGTTACAGAAACCACAGGCCTG,1240
27,CTACTTTTCGGTCAACGCGGCCTGCGGTACCACCTC,994

row,Sequence,RUNX1 binding intensity
1,ACAGAAAGAAGCCGCAGGCCAAGCGGCTGTCAGCGG,846
2,TTTCTTTCTGTTTGCATCACCCCAAACCCACTATCA,1830
3,GGTCTAAGAGCAAGGATGGGGACCAGCCCGCAGGCG,694
4,TCCAGCCTGATTCTCTCGGACTTTTCAACCGCCCGG,935
5,TTGCAAGAAACCGCTGGCCATGGCACGTCCCAGTGT,766
6,GTTTCAGTATTTGCTGGTGCGGCGTACCACACCTAC,917
7,CTCCCAGCCGGGCTGAACCGAGACCGCTTCGTCCCC,1050
8,CCATCGGCAGTTTTGGGTTTTGCGCCCACAGCCGCC,810
9,GGGACCGCAGTCCCGGGGAGCGCACCGAAAGTTCTC,788
10,ACAGATGGTCCGACACTTCAGAAAACCACTCATTGT,845
11,AAGTTCGCAACCGCCAAGAGGGGAGACGGGCTGCGC,764
12,AGCTGGTTAGCCTGATAGAATGTGGGTGCCGAGGGC,745
13,TAGAAAAGGCAGCAGGGTAGGTGTGGTATCTGGGTC,663
14,TAAACTGGACCGCGAAGGGAATAGCCTGAACCCGCC,661
15,GCGCGGCTCATGAAGCGACGCGGTTCAGGGAGCGAA,747
16,GCGCCAACCGCGCGGCCGCGCTTGCCTTTTCAGGTG,886
17,AGCCAGAACCGCGCCCGGGCCGCGCAAGGAAGACTC,824
18,GAGGGTGAGCGGTCAAGAGACCTCCAGCAAGAGCGG,707
19,TTGTGGTTCGGGCGTGTCGCGGAGCCCGTATGTAAT,756
20,GGAGGTGGGGAGGACGTTCTGAAACCACACACATTT,867
21,CTGGCTCCCATTCCTGCTGTGGTGAGGGCTTCCCTC,859
22,AGCACCACATTCTACACCTCCAGCTCATGCTGCGTC,990
23,GTGTGGTCAAAGTAAAAGCTCAGTGTCTCCGTGTTC,827
24,CTTCTACTTGCTGCCCCGCCCCCAGCTGTGGTCACA,1270
25,TGGGGAGCAGCAAGCTGGGGGCGGTTGTGGAGGGAC,797
26,TCAGCTGTGGTGGGAGGATCTCCTATCAGGCTGGCT,666
27,GCAAACTGAAGAGAGGAACGAAGGCCGCAGAGCTTG,734

row,Sequence,RUNX1 binding intensity
1,CGTCCCCGCAAAGCCGCGGCAGAAACTCCCGGCGGT,1270
2,TGGGACCGCTAATCGGAGAGGGTGCGCAAACGCTGG,658
3,GGCTAGCCTCCGATTCCCAGAGCCCCACAGCCGGGG,851
4,TGCAGAGCAGGCACCGCGGCACTTCGGCGAGCGCCG,674
5,ACAGGCAGCTGCGGCCGCCCGGCCTCCTCTCCCGCC,829
6,ACGCCGCGCATACGCGCTTTACGGCGGCCGCAAAAT,801
7,ATTTCAGTTGAAACCACTGTTCTTCATGTTTCTCTG,944
8,GCTGCAAGGCCGAAGCAGCGCGGTCGGACGGGCATG,728
9,GAGTGGGCGGTAACTCGCAGGCCGAACGTGACGCAA,740
10,GAGGGCTGTTGTGGTTAGGACGGCTTGCTGGGTGGG,4480
11,GGCGGGTACTGCGGCCCGCCCCACTTTCGGTTGTTG,745
12,GGAGCGGCGCGGTACTACTGGGGACGTCGGCGGCTG,669
13,TGACCTCCTCTGAGGCAGCAAGCTGCGGTGAAGTCT,691
14,GCCATCCAGGCAGTACAGACTCCCTGACCGCACTGA,1110
15,CTGCACAGGGAATTGAGTGTCGAGCTCACCGCACCG,729
16,ACTGCGGGCTACCTCCCCCACACCACTGCCGCCAAG,1100
17,CAGGATCTGCTGCGGGCCCGCCTTCGGTCCCCGGCC,787
18,CTAGCAGCCTCCGAGGGGGCTGCGGCCGGAGCGAGT,735
19,AGAAGCCCCGAATGGACGCGAAAGTGACCACGCGAA,717
20,GAAGATGCTGTGGTTGCATAGAGGAGGACATGAATC,914
21,TCAGCAAGTGGTGTGACCAGCATGTGAACCGCGGCA,659
22,CCGGGCGCCACTTTCGGTCCCCGTGGTCACGTGACC,901
23,CCCTCGCGCGGTCAGAGCGGCGCCGCGGAGGCGCAG,791
24,CTTCGGCCTTGCGTGATGGAAACCACCTCCTCTACA,1150
25,AACAGAGTGGGTTGTAAGGGACTGCCTGTGCATATA,792
26,TGCCGCCCGCAGCACCCTCCCCATTGCCTGGCTGTA,1040
